Results reported in the supplement of paper PMC12217912.
The list shows a part of the results. Sequences were assembled here from the parent chain. Inactive controls read about 0.05.

B1: TEV protease; numbered along this chain (parent)
chain: MGESLFKGPRDYNPISSSICHLTNESDGHTTSLYGIGFGPFIITNKHLFRRNNGTLVVQSLHGVFKVKDTTTLQQHLVDGRDMIIIRMPKDFPPFPQKLKFREPQREERICLVTTNFQTKSMSSMVSDTSCTFPSGDGIFWKHWIQTKDGQCGSPLVSTRDGFIVGIHSASNFTNTNNYFTSVPKNFMELLTNQEAQQWVSGWRLNADSVLWGGHKVFMVKPEEPFQPVKEATQL

Variants of: B1
Assay: raw area under fraction-flipped curve 0-4 h after induction (AUC4h, not background-subtracted), DNA-recorder readout of cleavage of the substrate (dimensionless); higher = more cleavage of the substrate by the protease variant
Conditions: temperature: 34 °C; time window: 0-4 h after rhamnose induction
Method: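 In vivo DNA recorder in E. coli TOP10(DE3) ΔrhaA at 34 °C. Each TEVp single-site mutant (parent TEVp 0) is paired with a single-site variant of the 7-mer TEVs (canonical ENLYFQ|S). The substrate sits between flexible linkers in a Bxb1-sfGFP-TEVs-SsrA fusion, so cleavage stabilises Bxb1 and speeds flipping of a recombination array, read by NGS. The value is the raw area under the fraction-flipped curve over 0-4 h after rhamnose induction (AUC4h), with ≥20 reads per time point. It is not background-subtracted; inactive controls average about 0.047.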
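Also: Bxb1 expression induced with 0.2% (w/v) L-rhamnose at OD600 near 0.5, cultures sampled hourly, flipped fraction per protease–substrate barcode pair counted by paired-end Illumina sequencing.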

| Variant | area with substrate CNLYFQS | area with substrate DNLYFQS | area with substrate FNLYFQS | area with substrate GNLYFQS | area with substrate HNLYFQS | area with substrate KNLYFQS | area with substrate LNLYFQS | area with substrate MNLYFQS | area with substrate PNLYFQS | area with substrate SNLYFQS | area with substrate TNLYFQS | area with substrate WNLYFQS | area with substrate YNLYFQS | area with substrate INLYFQS | area with substrate VNLYFQS | area with substrate NNLYFQS | area with substrate QNLYFQS | area with substrate RNLYFQS |
| --- | --- | --- | --- | --- | --- | --- | --- | --- | --- | --- | --- | --- | --- | --- | --- | --- | --- | --- |
| V220E | 0.0527 | 0.0658 | 0.0615 | 0.0759 | 0.0496 | 0.0755 | 0.0536 | 0.092 | 0.0736 | 0.0548 | 0.0688 | 0.0656 | 0.0676 |  |  |  |  |  |
| I19W | 0.044 | 0.0498 | 0.0421 | 0.0488 | 0.056 | 0.0237 | 0.0484 | 0.0416 | 0.0518 | 0.0424 | 0.0271 | 0.0535 | 0.043 | 0.0436 | 0.0357 |  |  |  |
| H76M | 0.0734 | 0.082 |  |  | 0.0613 |  |  | 0.077 | 0.0554 |  |  |  |  | 0.0442 | 0.0598 |  |  |  |
| G37F | 0.0497 | 0.067 |  | 0.0706 | 0.0541 | 0.0576 | 0.0621 | 0.0523 | 0.0561 | 0.0431 | 0.0517 | 0.0511 | 0.0461 | 0.0452 | 0.0604 | 0.0573 | 0.0735 |  |
| T23A | 0.0274 | 0.0675 |  | 0.0793 | 0.0656 | 0.0677 | 0.0802 | 0.0604 |  | 0.0676 | 0.0626 | 0.0576 | 0.058 | 0.0542 | 0.0463 |  |  | 0.0708 |
| K221L | 0.0593 | 0.0917 | 0.0621 | 0.0655 | 0.054 | 0.0681 |  | 0.0581 | 0.0603 | 0.0642 | 0.0871 | 0.0565 | 0.0811 |  | 0.0648 | 0.0746 | 0.0662 |  |
| A170Y | 0.0588 | 0.0658 |  | 0.0607 |  | 0.0609 | 0.0784 | 0.0482 | 0.0446 |  | 0.0575 | 0.057 | 0.0647 | 0.0656 | 0.0736 |  |  |  |
| K66D | 0.0617 | 0.0756 |  | 0.106 | 0.0517 | 0.0657 | 0.0764 | 0.0691 | 0.0529 |  | 0.0694 | 0.0551 |  | 0.0577 | 0.0684 | 0.0441 |  |  |
| I84A | 0.0554 | 0.0744 |  | 0.0624 |  | 0.0752 | 0.0741 | 0.0741 | 0.0667 | 0.0589 | 0.0688 | 0.0557 |  | 0.0608 |  | 0.0477 |  |  |
| V157W | 0.0481 | 0.0792 | 0.0519 |  | 0.0487 | 0.0672 | 0.0591 |  | 0.0484 | 0.0703 | 0.0485 | 0.0527 | 0.0409 | 0.0586 | 0.0472 | 0.055 | 0.069 |  |
| G63T | 0.0978 | 0.0674 | 0.0589 | 0.0767 | 0.0478 | 0.0737 | 0.0594 |  | 0.0521 | 0.0635 | 0.0636 | 0.0591 |  | 0.0649 |  |  |  | 0.0658 |
| D149T | 0.0556 | 0.0638 | 0.0536 | 0.0445 | 0.0535 | 0.0621 | 0.0545 |  | 0.059 |  | 0.0534 | 0.0585 |  |  | 0.0645 | 0.0543 |  | 0.0659 |
| I85T | 0.0593 | 0.0899 | 0.0473 | 0.0582 |  |  |  |  | 0.0462 | 0.0533 | 0.0496 | 0.041 | 0.0545 | 0.0547 | 0.0661 |  |  | 0.0311 |
